Some of the results follow.
Key:
[1] = tested on: HSkMC (human skeletal muscle cells); assay: cytotoxicity call (relative viability < 0.9); conditions: 10 µM
[2] = tested on: HepG2; assay: cytotoxicity call (relative viability < 0.9); conditions: 10 µM
[3] = tested on: S. aureus RN4220; assay: growth inhibition call (relative growth <= 0.2); conditions: 50 µM

Row | SMILES | cytotoxicity call [1] | cytotoxicity call [2] | growth inhibition call [3]
1 | Cc1noc(C)c1NC(=O)N(C)C[C@H]1Oc2ccc(NC(=O)Nc3cccc4ccccc34)cc2C(=O)N([C@H](C)CO)C[C@H]1C | inactive | inactive | inactive
2 | CCCNC(=O)N(C)C[C@@H]1Oc2cc(-c3ccccc3F)ccc2S(=O)(=O)N([C@@H](C)CO)C[C@@H]1C | inactive | inactive | inactive
3 | C[C@H](CO)N1C[C@H](C)[C@H](CN(C)C(=O)Cc2ccccc2)OCCCC[C@H](C)Oc2ccc(NS(=O)(=O)c3cccs3)cc2C1=O | inactive | inactive | inactive
4 | CC(C)(C)[S@@](=O)N1Cc2cc(C(=O)N3CCCCC3)nc(-c3cccc(-c4ccc(C#N)cc4)c3)c2[C@H]1CCO | inactive | inactive | inactive
5 | C[C@@H]1CCCCO[C@H](CN(C)Cc2ccc(Cl)c(Cl)c2)[C@@H](C)CN([C@H](C)CO)C(=O)c2cc(NC(=O)CCCCCC(=O)Nc3ccccc3N)ccc2O1 | inactive | inactive | inactive
6 | Cc1ccc(S(=O)(=O)Nc2ccc3c(c2)CC(=O)N([C@@H](C)CO)C[C@@H](C)[C@@H](CN(C)Cc2ccc(-c4ccccc4)cc2)O3)cc1 | active | active | inactive
7 | CN(C)CC(=O)N[C@@H]1CC[C@@H](CC(=O)NCCN2CCCCC2)O[C@H]1CO | inactive | inactive | inactive
8 | Cc1noc(C)c1S(=O)(=O)Nc1ccc2c(c1)C(=O)N([C@H](C)CO)C[C@@H](C)[C@H](CN(C)Cc1ccc(Oc3ccccc3)cc1)O2 | inactive | inactive | inactive
9 | C[C@@H]1CN([C@@H](C)CO)C(=O)c2ccccc2-c2ccccc2CO[C@@H]1CN(C)Cc1ccccc1C(F)(F)F | inactive | inactive | inactive
10 | COc1ccc(S(=O)(=O)N(C)C[C@@H]2Oc3ccc(NC(=O)Nc4c(C)noc4C)cc3C(=O)N([C@H](C)CO)C[C@@H]2C)cc1 | inactive | inactive | inactive
11 | C[C@H]1CN([C@@H](C)CO)C(=O)Cc2cc(NC(=O)Cn3cnnn3)ccc2O[C@H]1CN(C)Cc1ccc(-c2ccccc2)cc1 | inactive | inactive | inactive
12 | C[C@@H]1CCCCO[C@H](CN(C)C(=O)Nc2cccc3ccccc23)[C@@H](C)CN([C@@H](C)CO)C(=O)c2cc(NS(C)(=O)=O)ccc2O1 | inactive | inactive | inactive
13 | C[C@@H]1CN([C@H](C)CO)C(=O)c2cccc(NS(C)(=O)=O)c2O[C@H]1CN(C)C(=O)Nc1ccc(F)cc1 | inactive | inactive | inactive
14 | C[C@@H]1CN([C@@H](C)CO)S(=O)(=O)c2ccc(C#Cc3ccncc3)cc2O[C@@H]1CN(C)C(=O)C1CCOCC1 | inactive | active | inactive

Reference: the antibiotic and cytotoxicity screens of Wong et al. (2023)
